Hit rate of the full screen: of about 46,000 compounds, about 60 (0.1%) were called active. Not shown: some 3% with an inconclusive outcome. The call rests on the fitted dose curve; in most records, active means well fitted inhibition curve with a large enough effect; inconclusive means small, poorly fitted or top-dose-only effect; inactive means no such curve, though single readings can be large or run the other way. Some of the results follow.

This test is described as follows: Primary qHTS assay for Inhibitors of ovarian cancer metastasis using an organotypic tumor microenvironment (TME) model. Further: nearly all actives have a fitted effect of over 65% in size.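 On activity change, negative = inhibition: plate controls were DMSO wells for no effect and tomatine positive control wells for full effect.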 The conditions noted are these: SKOV3ip1-GFP adhesion/invasion on 3D omental model, fluorescence; series mostly up to 45.8 µM; activity change, negative = inhibition: at the top concentration. An outline of the steps: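 A 3D layer of primary human omental fibroblasts, mesothelial cells, fibronectin and collagen I, grown 48 hr, received SKOV3ip1-GFP cells in serum-free medium plus compounds at 0.36-46 umol/L. After 2 hr RT and 16 hr 37 C, fixed adherent GFP cells were counted; normalized to DMSO and tomatine.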
For orientation: qHTS replaces the single test concentration by a dilution series.
`Cc1cc(=O)[nH]c2nnc(SCc3ccc(F)cc3)n12`: the outcome was inactive.

On to `Cc1ccc(C)c(S(=O)(=O)c2nnn3c2nc(Nc2ccc(C)c(C)c2)c2sccc23)c1`, for which the compound was called inactive. For the compound `O=C(CC(c1cccs1)N1Cc2ccccc2C1=O)Nc1ccc(F)c(F)c1` (stereo not drawn), the “activity change, negative = inhibition” value is inactive: -8.38%. Take `COc1ccc(N2C(=O)CS(=O)(=O)C23C(=O)N(Cc2cccc(F)c2)c2ccccc23)cc1OC` (stereo not drawn): the “activity change, negative = inhibition” value was inactive: 12.3%. For `Cc1ccc(-c2ccc(=O)n(CC(=O)Nc3ccc(C)cc3Cl)n2)cc1`, the “activity change, negative = inhibition” value is inactive: 9.02%.

On to `Cc1cccc(CN2C(=O)N(c3ccc(C(C)C)cc3)S(=O)(=O)c3ccccc32)c1`, for which the “activity change, negative = inhibition” value was inactive: 3.18%. Take `O=C(COc1ccccc1F)Nc1ccc2oc(-c3cccc(Cl)c3)nc2c1`: the call was inactive.

Turning to `COc1ccccc1-c1nc(SCC(=O)NCc2ccc(C)cc2)c2c(=O)n(C)c(=O)n(C)c2n1`, the “activity change, negative = inhibition” value was inactive: -25.6%. As to `COc1ccc(C2C=C(c3ccccc3)Nc3nc(NC(=O)c4cccc([N+](=O)[O-])c4)nn32)cc1` (stereo not drawn), the “activity change, negative = inhibition” value is inactive: -1.8%. Consider `Clc1cccc(N2CCN(c3nc4ccccc4n4nnnc34)CC2)c1`, for which the “activity change, negative = inhibition” value was inactive: -7.39%. `COc1ccc(C(=O)Nc2ccc3oc(-c4cccnc4)nc3c2)cc1`: the “activity change, negative = inhibition” value is inactive: 1.06%.

For the compound `COc1cccc(/C=C/c2nc(C#N)c(NCCc3ccccc3)o2)c1`, the outcome was inactive. With `COc1cccc(CNC(=O)c2sc3nc(C)cc(C)c3c2-n2cccc2)c1OC`, the “activity change, negative = inhibition” value was inactive: 5.44%. With `CCOC(=O)c1ccc(NC(=O)C2CCCN(c3ncnc4onc(-c5ccc(F)cc5)c34)C2)cc1` (stereo not drawn), the “activity change, negative = inhibition” value is inactive: 10.1%. Still for that read-out and setting: next, `Cc1c(C(=O)NCc2ccccc2)sc2nc3n(c(=O)c12)CCCCC3`: inactive: 4.79%; `Cc1ccc(OCC(=O)Nc2cccc(-c3nc4ccccc4s3)c2)cc1`: inactive: -17.9%; `Cc1ccc(NC(=O)c2oc3ccc(S(=O)(=O)N4CCC5(CC4)OCCO5)cc3c2C)cc1C`: inactive: -1.91%. Still for that read-out and setting: under `Cc1nn(S(=O)(=O)c2ccc(C(C)(C)C)cc2)c(C)c1S(=O)(=O)N1CCCCCC1` stands inactive: 8.73%; under `Cc1ccc(-c2n[nH]c3c2C(c2ccc(C(C)(C)C)cc2)NC3=O)cc1` (stereo not drawn), inactive: -6.15%; under `COCCNC(=O)CCn1c(=O)c2cc(OC)c(OC)cc2n(CC(=O)Nc2ccc(Cl)cc2F)c1=O`, inactive: 11.8%. In the case of `COC(=O)C(Cc1c[nH]c2ccccc12)NC(=O)COc1cccc(C)c1` (stereo not drawn), the “activity change, negative = inhibition” value is inactive: -0.239%. Take `COC(=O)c1sccc1S(=O)(=O)N1CCN(c2cc(Cl)ccc2C)CC1`: the “activity change, negative = inhibition” value is inactive: -13.5%.

As to `CCOC(=O)COc1ccc(CC)cc1C(=O)c1ccn2nc(-c3ccccc3)cc2n1`, the compound was called inactive.

On to `Cc1ccc(Cl)cc1N1CCN(C(=O)c2ccc(NC(=O)c3nsc4ccccc34)cc2)CC1`, for which the “activity change, negative = inhibition” value is inactive: -3.46%. With `CCOC(=O)c1ccc(N2CCN(c3cc(C)ccc3C)CC2)c(NC(=O)Nc2ccc(CC)cc2)c1`, the “activity change, negative = inhibition” value is inactive: -4.92%.

Regarding `CCCOc1cccc(C(=O)Nc2cccc(-c3nc4ncccc4o3)c2C)c1`, the compound was called inactive.

On to `CCCCC(=O)NCc1nc2cccnc2n1Cc1ccc(OC)cc1`, for which the “activity change, negative = inhibition” value is inactive: 3.51%. As for `COc1cccc(Nc2ccc3cc(S(=O)(=O)N4CCC(C)CC4)ccc3n2)c1`, the “activity change, negative = inhibition” value was inactive: -0.794%. Take `CCC1CN(C(=O)N2CCC(C(=O)NCc3ccc(N(C)C)cc3)CC2)c2ccccc2O1` (stereo not drawn): the compound was called inactive. As to `Cc1nn2c(=O)cc(COC(=O)c3cccc(NC(=O)CCc4ccccc4)c3)nc2s1`, the “activity change, negative = inhibition” value is inactive: 12.9%. In the case of `Cc1ccccc1-c1nc2scc(CCNS(=O)(=O)c3ccccc3)n2n1`, the “activity change, negative = inhibition” value was inactive: -2.3%. As for `COc1ccc(-c2oc3ncn4nc(-c5ccccc5O)nc4c3c2-c2ccc(OC)cc2)cc1`, the “activity change, negative = inhibition” value is inactive: -4.16%. For the compound `CCOc1ccc(-n2c(/C=C/c3cccc(F)c3)nc3cc(OC)c(OC)cc3c2=O)cc1`, the “activity change, negative = inhibition” value was inactive: 40.9%.

As to `COc1ccc(-c2cc(-c3ccc(F)cc3)nc3c2COc2ccc(F)cc2-3)cc1`, the result was inactive. With `CCn1cc2nc(SCC(=O)Nc3ccc(OC)c(OC)c3)n(Cc3ccc(Cl)cc3)c(=O)c2n1`, the result was inactive. Still for that read-out and setting: under `Cc1cn2c(=O)cc(COC(=O)c3cccc(NC(=O)c4ccc(C(C)(C)C)cc4)c3)nc2s1` stands “inactive”. On to `Cc1c(C(=O)NCc2ccccc2Cl)sc2nc3n(c(=O)c12)CCCCC3`, for which the “activity change, negative = inhibition” value is inactive: 1.24%.

As for `CC(=O)c1cccc(NC(=O)C2CCN(C(=O)c3cnn(-c4ccccc4)c3-n3cccc3)CC2)c1`, the outcome was inactive. Take `CCOc1ccc(NC(=O)CN2C(=O)CC(C)Sc3ccccc32)cc1` (stereo not drawn): the “activity change, negative = inhibition” value is inactive: 3.64%.

In the case of `CC[C@H]1OC(=O)[C@H](C)C(=O)[C@H](C)[C@@H](O[C@H]2O[C@H](C)C[C@H](N(C)C)[C@@H]2O)[C@](C)(OC)C[C@@H](C)C(=O)[C@H](C)[C@H]2N(CCCCn3cnc(-c4cccnc4)c3)C(=O)O[C@]12C`, the “activity change, negative = inhibition” value was inactive: 4.41%. With `CC(C)(C)OC(=O)N1CCC(c2c(C(=O)Nc3ccc4c(c3)OCCO4)cnn2-c2ccc(Cl)cc2)CC1`, the compound was called inactive. `O=C(NCc1ccccc1)C1CCCN(S(=O)(=O)c2cccc3nsnc23)C1` (stereo not drawn): the “activity change, negative = inhibition” value was inactive: 8.83%. As to `O=C1CN(C(=O)COc2ccc(Cl)cc2)C(c2ccccc2)c2cc(Br)ccc2N1` (stereo not drawn), the “activity change, negative = inhibition” value was inactive: 19.2%. `Cc1cccc(C(=O)Nc2cc(-c3nc4cccnc4s3)ccc2C)c1`: the “activity change, negative = inhibition” value is inactive: -3.02%. With `COc1ccc(C)cc1NC(=O)C1CCN(S(=O)(=O)c2ccc3[nH]c(=O)oc3c2)CC1`, the “activity change, negative = inhibition” value was inactive: 15.6%. For `COc1ccc(CCn2c3c(c(=O)[nH]c2=O)C(NC(=O)c2ccccc2F)(C(F)(F)F)C(=O)N3)cc1OC` (stereo not drawn), the “activity change, negative = inhibition” value is inactive: 1.68%. `CC(C)Oc1ccccc1C1C=C(C(=O)O)Nc2ncnn21` (stereo not drawn): the compound was classed as inactive. For `COc1cc2c(=O)n(Cc3ccccc3Cl)c(=O)n(CC(=O)Nc3ccc(C)c(C)c3)c2cc1OC`, the “activity change, negative = inhibition” value is inactive: 19.6%. With `CCn1cc(CCC(=O)NCc2ccc(C)cc2)c2ccccc21`, the “activity change, negative = inhibition” value is inactive: -8.87%. On the same count and under the same terms, next, `COc1ccc(CCNC(=O)C(CC(C)C)N2Cc3ccccc3C2=O)c(OC)c1OC` (stereo not drawn): inactive: -1.73%; `Cc1ccc2c(c1)C(Cc1ccccc1F)C(=O)N2` (stereo not drawn): inactive: 9.33%; `Cc1ccccc1NC(=O)CCOc1ccccc1`: inactive: -1.81%.

For the compound `CC(C(=O)NCc1cccc(Br)c1)n1ncn2cccc2c1=O` (stereo not drawn), the “activity change, negative = inhibition” value was inactive: -11.2%. Regarding `Cc1ccc(NC(=O)c2c(C(=O)Nc3ccccc3)sc3nc(C)cc(=O)n23)cc1`, the “activity change, negative = inhibition” value was inactive: -24.6%. On the same count and under the same terms, next, `COc1ccc(CNC(=O)C2CCN(S(=O)(=O)c3c(C)noc3/C=C/c3cccs3)CC2)cc1`: inactive: -2.24%; `COc1ccc(N2CCN(C(=O)c3cn(C)c4ccc(S(=O)(=O)N(C)C5CCCCC5)cc4c3=O)CC2)cc1`: inactive: -9.91%. Turning to `COc1cc2ccccc2cc1C(=O)Nc1cccc(-c2nc3ccccc3o2)c1`, the result was inactive. Take `C=CCNc1c(O)cc2c(O)c1C[C@@H](C)C[C@H](OC)[C@@H](O)[C@@H](C)C=C(C)[C@H](OC(N)=O)[C@@H](OC)C=CC=C(C)C(=O)N2`: the “activity change, negative = inhibition” value was inactive: 20.4%.

Source of the values: PubChem BioAssay AID1963576 (National Center for Advancing Translational Sciences (NCATS), 2024).
